According to PubChem BioAssay AID602233 (National Center for Advancing Translational Sciences (NCATS), 2012):
The whole screen tested about 380,000 compounds, of which about 170 (0.045%) were called active. The shares of active, inactive and inconclusive entries below differ from those in the screen. Calls follow the shape of the dose curve; as a rule, active = well fitted inhibition curve with a large enough effect; inconclusive = small, poorly fitted or top-dose-only effect; inactive = no such curve, though single readings can be large or run the other way. No potency is given beside an inconclusive call; the fits are too rough.

Target: Phosphoglycerate kinase, glycosomal (Trypanosoma brucei brucei) (UniProt P07378)
Experiment: qHTS Assay to Find Inhibitors of Phosphoglycerate Kinase; also: nearly all actives have a fitted effect of over 60% in size
Conditions: PGK/GAPDH coupled, Kinase-Glo luminescence, 60 min; series mostly up to 57.5 µM; activity change, negative = inhibition: at the top concentration
Procedure, shortened: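 Luminescent ATP detection (Kinase-Glo Plus) follows a 60-minute room-temperature incubation, with wells lacking PGK as controls. Buffer: 100 mM TEA (pH 7.6), 5 mM MgCl2, 0.01% Tween-20. Coupling enzyme GAPDH (100 nM final) supplies unstable 1,3-BPG in-well.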
% is scaled to controls: 0 for no effect and ±100 for the full control effect; potency is read from the fitted curve at half-maximal effect; tags tell the direction and shape of the fitted curve.

Row | SMILES | Potency | outcome | activity change, negative = inhibition
1 | CN1/C(=C/C=C/c2n(C)c3cc([N+](=O)[O-])c([N+](=O)[O-])cc3[n+]2C)C(C)(C)c2ccccc21 | inconclusive [inhibitor, partial curve] | – | –
2 | COC(=O)C1=C(C)N(C)C(=O)NC1c1cc2c(cc1[N+](=O)[O-])OCO2 (stereo not given) | – | inactive | –
3 | CSc1ncc(CN2CCN(C3CCCCC3)C(CCO)C2)cn1 (stereo not given) | – | – | inactive: -2.32%
4 | O=Cc1sc(Nc2ccccc2)nc1Cl | – | – | inactive: -0.396%
5 | CCCCOc1ccc(S(=O)(=O)Nc2ccc(NC(C)=O)cc2)cc1 | inconclusive [inhibitor, single point] | – | –
6 | CC(C)c1ccc2c(c1)c(SC(C)(C)C)c(CC(C)(C)C(=O)O)n2Cc1ccc(Cl)cc1 | inconclusive [inhibitor, partial curve, poor fit] | – | –
7 | CCn1c(C)nc2cc(S(=O)(=O)C(F)(F)C(F)C(F)(F)F)ccc21 (stereo not given) | – | – | inactive: 2.35%
8 | CCN(CC)c1ccc(C(=C2C=CC(=[N+](CC)CC)C=C2)c2ccc(N(CC)CC)cc2)cc1 | inconclusive [inhibitor, partial curve] | – | –
9 | CC1=NOC(=O)/C1=C\c1ccc(-c2ccc(Cl)c(C(=O)O)c2)o1 | inconclusive [inhibitor, single point] | – | –
10 | Oc1c(Cl)cc(Cl)cc1C=Nc1cc(C(F)(F)F)ccc1N1CCc2ccccc2C1 | inconclusive [inhibitor, partial curve, poor fit] | – | –
11 | Cc1ccc(S(=O)(=O)N2CCCN(S(=O)(=O)c3ccc4c(c3)OCCO4)CC2)cc1 | – | – | inactive: 6.3%
12 | COc1ccc2c(c1OC)C(=O)OC2N1C(=O)CC[C@H]1C(=O)NCC1CCCO1 (stereo not given in full) | – | – | inactive: 1.54%
13 | COc1ccc(-c2nc3ccccc3o2)cc1NC(=O)C(C)(C)Oc1ccc(Br)cc1 | – | – | inactive: -5.49%
14 | c1coc(-c2nnc3sc(Cc4cccs4)nn23)c1 | inconclusive [inhibitor, partial curve, poor fit] | – | –
15 | C=CCn1c(CNC(=O)c2cccs2)nnc1SCC(=O)c1ccc(Br)cc1 | – | – | inactive: -7.01%
16 | COc1cccc(CNCCSc2nnnn2C)c1OCc1ccc(Cl)cc1Cl | inconclusive [inhibitor, partial curve, poor fit] | – | –
17 | Cc1c(C(=O)O)sc2nc(/C=C/c3cccc(O)c3)[nH]c(=O)c12 | inconclusive [inhibitor, single point] | – | –
18 | Cc1ccc(NC(=O)CSc2nc(-c3ccco3)nc3cc(=O)[nH]n23)c(Cl)c1 | – | – | inactive: -19.4%
19 | N/C(=N/OC(=O)c1ccccc1Cl)c1nonc1N | inconclusive [inhibitor, partial curve, poor fit] | – | –
20 | CC(C)(C)c1cc(C(=S)N2CCN(CCO)CC2)cc(C(C)(C)C)c1O | – | – | inactive: -1.7%
21 | Cc1ccc(-n2c(=S)sc3c(=O)n(-c4ccccc4F)c(SCC(=O)O)nc32)cc1C | inconclusive [inhibitor, single point] | – | –
22 | COc1ccc(-c2ccc(NC(=O)c3ccco3)cc2)nn1 | inconclusive [inhibitor, partial curve] | – | –
23 | Cc1ccc(NC(=O)Cn2c(=O)n(-c3ccc(CC(=O)NCC4CCCO4)cc3)c(=O)c3ccccc32)cc1 (stereo not given) | – | – | inactive: 3.88%
24 | COc1ccc(C2=CC3=C(Br)C(=O)C(C)(OC(=O)c4ccco4)C(=O)C3=CO2)cc1 (stereo not given) | inconclusive [inhibitor, partial curve, poor fit] | – | –

Row | SMILES | Potency | outcome | activity change, negative = inhibition
25 | O=C(Nc1ccncc1)c1ccc2c(c1)C(=O)N(C1CCCCC1)C2=O | – | – | inactive: -2.3%
26 | O=C(NCc1cccc(CNC(=O)c2ccco2)c1)c1ccco1 | – | – | inactive: -8.57%
27 | COC(=O)c1ccc(COc2ccccc2/C=C/C(=O)c2ccc(OCC(=O)O)cc2)cc1 | inconclusive [inhibitor, single point] | – | –
28 | Cc1ccc(S(=O)(=O)N2[C@@H](c3ccc(C(C)(C)C)cc3)C(C(=O)O)=CC[C@H]2c2ccc(C(C)C)cc2)cc1 | inconclusive [inhibitor, single point] | – | –
29 | C=CCn1c(=S)[nH]c2scc(-c3ccco3)c2c1=O | inconclusive [inhibitor, single point] | – | –
30 | CN1C(=O)Cc2cc(S(=O)(=O)NCc3cccs3)ccc21 | – | – | inactive: -13.4%
31 | CCCCn1c(SCC(=O)Nc2nnc(C(C)C)s2)nc2c1c(=O)n(C)c(=O)n2C | – | – | inactive: -1.42%
32 | Cc1ccc(C(=O)NCC(=O)NCC(c2cccs2)N(C)C)cc1C (stereo not given) | – | – | inactive: -0.586%
33 | Cc1sc2nc(SCC(=O)Nc3cccc(C(=O)O)c3)[nH]c(=O)c2c1C | – | – | inactive: -3.37%
34 | CC1CCC(NC(=O)C(NS(=O)(=O)c2ccc(Br)cc2)C(C)C)CC1 (stereo not given) | – | inactive | –
35 | CC(=O)OCC1=C(C(=O)O)N2C(=O)C(NC(=O)Cn3nc(C(F)F)c(Cl)c3C)C2SC1 (stereo not given) | inconclusive [inhibitor, single point] | – | –
36 | CC(=O)Oc1ccc2occ(/C=N/c3cc(=O)[nH]c(=S)[nH]3)c(=O)c2c1 | – | – | inactive: -4.23%
37 | O=C1CC(c2ccc(O)c(O)c2)Oc2c1ccc(O)c2O (stereo not given) | inconclusive [inhibitor, full curve, poor fit] | – | –
38 | CC(=O)c1ccc2c(c1)C1C=CCC1C(C(=O)O)N2 (stereo not given) | active: 14.1 µM | – | –
39 | O=C(O)c1cccc2cccc(-c3c4ccc(=O)c(O)c-4oc4c(O)c(O)ccc34)c12 | active: 2.51 µM | – | –
40 | COc1cccc(-c2nc(-c3ccc4c(c3)-c3ccccc3S4(=O)=O)c(-c3ccccc3)[nH]2)c1OC | – | – | inactive: 8.09%
41 | C/C(=C\C=C(C#N)C#N)c1cc(C#N)c(N)o1 | – | – | inactive: -17.9%
42 | COc1ccc(C2=NOC3(CC(=O)N(c4ccc5ccccc5c4)C3=O)C2)c(OC)c1 (stereo not given) | inconclusive [inhibitor, partial curve] | – | –
43 | O=C(Nc1ccc(-c2nc3cc(NC(=O)c4ccc(F)cc4)ccc3o2)cc1)c1ccc(F)cc1 | – | – | inactive: 8.7%
44 | CCc1nnc(NC(=O)CSc2nncc(=O)n2N)s1 | inconclusive [inhibitor, partial curve, poor fit] | – | –
45 | Cn1nc(-c2ccccn2)nc2c(=O)n(C)c(=O)nc1-2 | inconclusive [inhibitor, full curve, poor fit] | – | –
46 | S=C1Cc2ccccc2N1 | inconclusive [inhibitor, partial curve, poor fit] | – | –
47 | CCCC[N+](C)(C)CCC(=O)NC(C)(C)CS(=O)(=O)[O-] | inconclusive [inhibitor, partial curve] | – | –
48 | CCC(C)Sc1cc(-c2nc3ccccn3c2NC2CCCCC2)ccc1OC (stereo not given) | – | inactive | –

Row | SMILES | Potency | outcome | activity change, negative = inhibition
49 | Nn1c(SCC(=O)NCc2ccccc2)nnc1C1CC1 | inconclusive [inhibitor, full curve, poor fit] | – | –
50 | CN(CC(=O)NCc1ccncc1)S(=O)(=O)c1ccc(Cl)cc1 | inconclusive [inhibitor, single point] | – | –
51 | CCCCC[C@H](O)/C=C/[C@@H]1[C@@H](C/C=C\CCCC(=O)OC)[C@@H](O)C[C@H]1O | inconclusive [inhibitor, partial curve] | – | –
52 | Cc1ccc(NC(=O)CN2C(=O)N/C(=C\c3cccn3-c3cccc(C(=O)O)c3)C2=O)cc1 | inconclusive [inhibitor, partial curve] | – | –
53 | CCCCNC(=O)c1cn(-c2ccc(OCC)cc2)c(=O)c2cc(OC)c(OC)cc12 | – | – | inactive: -7.11%
54 | O=C(COC(=O)c1ccccc1)Nc1ncc([N+](=O)[O-])s1 | inconclusive [inhibitor, partial curve, poor fit] | – | –
55 | C=CC1=C(C(=O)O)N2C(=O)[C@@H](NC(=O)/C(=N\O)c3csc(N)n3)[C@H]2SC1 (stereo in doubt) | inconclusive [inhibitor, partial curve] | – | –
56 | Cc1cccc2sc(NC(=O)C3CCN(S(=O)(=O)c4cc([N+](=O)[O-])ccc4Cl)CC3)nc12 | inconclusive [inhibitor, partial curve, poor fit] | – | –
57 | Cn1cccc1/C=N/NC(=O)Cc1cccc2ccccc12 | – | inactive | –
58 | O=C(O)CCCN1C(=O)/C(=C/c2cn(-c3ccccc3)nc2-c2cccs2)SC1=S | inconclusive [inhibitor, single point] | – | –
59 | COCCN1Cc2cc3cc(C)ccc3nc2SC1=Nc1ccc(OC)cc1 | – | – | inactive: -7%
60 | Cn1c(SCC(=O)Nc2ccc3nc(SCC(=O)N4CCCC4)sc3c2)nnc1-c1ccc(N)cc1 | – | – | inactive: -17%
61 | NS(=O)(=O)c1ccc(NC(=O)/C=C/c2ccco2)cc1 | inconclusive [inhibitor, partial curve] | – | –
62 | C=C(C)C(=O)Nc1cccc(C2=NOC3(C2)C[C@H](C(N)=O)N(C(=O)c2ccccc2C(=O)c2ccccc2)C3)c1 (stereo not given in full) | inconclusive [inhibitor, full curve, poor fit] | – | –
63 | Cc1ccc(C(=O)NCc2ccco2)cc1S(=O)(=O)Nc1cccc(C)c1C | inconclusive [inhibitor, single point] | – | –
64 | Cc1ccc(-c2cc3c(nn2)-c2ccccc2C3=O)cc1 | inconclusive [inhibitor, partial curve] | – | –
65 | Cc1cccc(OC(=O)Cn2c(C(F)(F)F)nc3ccccc32)c1 | – | – | inactive: -2.13%
66 | Cc1ccc(-c2cc(C(=O)Nc3c(C)n(C)n(-c4ccccc4)c3=O)no2)cc1 | – | – | inactive: -8.19%
67 | O=C(NCc1ccccc1)c1onc(CSc2ccccc2)c1C(=O)NCC1CC1 | – | – | inactive: -7.43%
68 | CN(CC(=O)Nc1ccc(Cl)cc1)CC(=O)Nc1sc2c(c1C(N)=O)CCC2 | – | – | inactive: 1.29%
69 | Cc1ccc(NS(=O)(=O)c2ccc(Cl)c(N=Nc3c(O)[nH]c(=O)[nH]c3=O)c2)cc1Cl | – | – | inactive: -19.4%
70 | Cc1cccc(/C(N)=N/OC(=O)c2ccc(F)cc2)c1 | inconclusive [inhibitor, partial curve, poor fit] | – | –
